The results in this text go back to the GPR68 mutational scans of Howard et al. (2025).

The least precise scores are not listed. Two further conditions of the source, in which the scores hardly spread, are not listed. Names with del lack the residues named; names with ins carry added residues between the positions named. For some assays here: The data file names ogerin without a concentration.

B1: GPR68, Q15743 (parent)
chain: MGNITADNSSMSCTIDHTIHQTLAPVVYVTVLVVGFPANCLSLYFGYLQIKARNELGVYLCNLTVADLFYICSLPFWLQYVLQHDNWSHGDLSCQVCGILLYENIYISVGFLCCISVDRYLAVAHPFRFHQFRTLKAAVGVSVVIWAKELLTSIYFLMHEEVIEDENQHRVCFEHYPIQAWQRAINYYRFLVGFLFPICLLLASYQGILRAVRRSHGTQKSRKDQIQRLVLSTVVIFLACFLPYHVLLLVRSVWEASCDFAKGVFNAYHFSLLLTSFNCVADPVLYCFVSETTHRDLARLRGACLAFLTCSRTGRAREAYPLGAPEASGKSGAQGEEPELLTKLHPAFQTPNSPGSGGFPTGRLA

The variants in data set [1] derive from B1. In words: cAMP reporter score (Enrich2 score, wild type = 0); higher = more signal; HEK293T, FACS bins.
The variants in data set [2] derive from B1. In words: surface expression score (Enrich2 score, wild type = 0); higher = more signal; HEK293T, FACS bins.

As for V264_N266del, the cAMP reporter score in data set [1] (pH 5.5) was -1.82; in data set [1] (pH 6), -0.694; in data set [1] (pH 6, modulator: ogerin), -1.03; in data set [1] (pH 6.5, modulator: ogerin) it was -1.18. Moreover, the surface expression score in data set [2] is -0.608.
With L274_T275insG, the cAMP reporter score in data set [1] (pH 5.5) was -0.829; in data set [1] (pH 6.5, modulator: ogerin), -1.55. In data set [2], the surface expression score is -3.39.
Take C258M: the cAMP reporter score was -1.18 in data set [1] (pH 5.5); -0.998 in data set [1] (pH 6, modulator: ogerin); -0.214 in data set [1] (pH 6.5, modulator: ogerin). Further, the surface expression score in data set [2] was -1.78.
Consider C258Y, for which the cAMP reporter score was -1.36 in data set [1] (pH 5.5); -0.826 in data set [1] (pH 6); -1.34 in data set [1] (pH 6, modulator: ogerin); -1.3 in data set [1] (pH 6.5, modulator: ogerin). For the same variant, in data set [2], the surface expression score is -1.34.
Regarding C258S, the cAMP reporter score in data set [1] (pH 5.5) is -1.86; in data set [1] (pH 6), -1.06; in data set [1] (pH 6, modulator: ogerin) it was -1.49; in data set [1] (pH 6.5, modulator: ogerin), -1.16. Further, the surface expression score in data set [2] is -1.63.
For C258G the same measures were -1.68, -0.609, -2.05, -1.27 and 0.064.
For the variant C258L, the cAMP reporter score in data set [1] (pH 5.5) was -0.379; in data set [1] (pH 6, modulator: ogerin), -1.07; in data set [1] (pH 6.5, modulator: ogerin), -1.23.
As to C258N, the cAMP reporter score in data set [1] (pH 5.5) was -1.48; in data set [1] (pH 6), -0.845; in data set [1] (pH 6.5, modulator: ogerin), -1.46. Besides, in data set [2], the surface expression score was -1.45.
Take C258P: the cAMP reporter score in data set [1] (pH 5.5) was -1.34; in data set [1] (pH 6), -0.501; in data set [1] (pH 6, modulator: ogerin) it was -1.58; in data set [1] (pH 6.5, modulator: ogerin) it was -0.963. Moreover, in data set [2], the surface expression score was determined as 0.15.
With C258T, the cAMP reporter score in data set [1] (pH 5.5) is -0.994; in data set [1] (pH 6), -0.451; in data set [1] (pH 6, modulator: ogerin), -1.87; in data set [1] (pH 6.5, modulator: ogerin) it was -0.341. In addition, the surface expression score in data set [2] is -1.23.
On to C258I, for which the cAMP reporter score in data set [1] (pH 5.5) is -2.3; in data set [1] (pH 6) it was -1.42; in data set [1] (pH 6, modulator: ogerin), -1.51; in data set [1] (pH 6.5, modulator: ogerin), -1.25. Further, in data set [2], the surface expression score is -2.58.
With C258W, the cAMP reporter score in data set [1] (pH 5.5) was -1.1; in data set [1] (pH 6), -1.16; in data set [1] (pH 6, modulator: ogerin), -0.49; in data set [1] (pH 6.5, modulator: ogerin) it was -1.21. In data set [2], the surface expression score was -1.62.
Consider C258Q, for which the cAMP reporter score is -1.44 in data set [1] (pH 5.5); -1.13 in data set [1] (pH 6); -1.09 in data set [1] (pH 6, modulator: ogerin). For the same variant, the surface expression score in data set [2] is -1.21.
For the variant C258H, the cAMP reporter score in data set [1] (pH 5.5) was -1.33; in data set [1] (pH 6), -1.08; in data set [1] (pH 6, modulator: ogerin), -1.64; in data set [1] (pH 6.5, modulator: ogerin) it was -1.31. Further, in data set [2], the surface expression score is -0.751.
For C258R the same measures were -0.677, 0.39, -1.46, -0.662 and -1.59.
For L272del, the cAMP reporter score in data set [1] (pH 5.5) was -1.91; in data set [1] (pH 6), -1.65; in data set [1] (pH 6.5, modulator: ogerin), -1.43. Further, the surface expression score in data set [2] was -1.81.
Consider S276W, for which the cAMP reporter score in data set [1] (pH 5.5) is -0.917; in data set [1] (pH 6) it was -1.11; in data set [1] (pH 6, modulator: ogerin), -1.2; in data set [1] (pH 6.5, modulator: ogerin), -0.849. In addition, in data set [2], the surface expression score was -2.06.
Regarding S276T, the cAMP reporter score in data set [1] (pH 5.5) was determined as 0.011; in data set [1] (pH 6), 1.07; in data set [1] (pH 6, modulator: ogerin), 1.11; in data set [1] (pH 6.5, modulator: ogerin) it was 1.67. Besides, the surface expression score in data set [2] came to 0.395.
Take S276E: the cAMP reporter score in data set [1] (pH 5.5) is -1.54; in data set [1] (pH 6) it was -0.694; in data set [1] (pH 6, modulator: ogerin) it was -1.45; in data set [1] (pH 6.5, modulator: ogerin) it was -1.42. Further, in data set [2], the surface expression score was -1.68.
As for S276M, the cAMP reporter score in data set [1] (pH 5.5) was -1; in data set [1] (pH 6), -2.08; in data set [1] (pH 6, modulator: ogerin), -0.473; in data set [1] (pH 6.5, modulator: ogerin), -1.02. In data set [2], the surface expression score turned out to be 0.214.
Regarding S276D, the cAMP reporter score in data set [1] (pH 5.5) is -1.3; in data set [1] (pH 6), -1.8; in data set [1] (pH 6, modulator: ogerin) it was -0.623; in data set [1] (pH 6.5, modulator: ogerin), -0.724. Also, the surface expression score in data set [2] was -2.94.
Regarding S276C, the cAMP reporter score in data set [1] (pH 5.5) amounted to 0.596; in data set [1] (pH 6, modulator: ogerin), 1.3; in data set [1] (pH 6.5, modulator: ogerin) it was 1.54.
On to S276N, for which the cAMP reporter score was -1.26 in data set [1] (pH 5.5); -1.28 in data set [1] (pH 6); -2.27 in data set [1] (pH 6, modulator: ogerin); -1.49 in data set [1] (pH 6.5, modulator: ogerin). Further, the surface expression score in data set [2] was -0.172.
As for S276Q, the cAMP reporter score in data set [1] (pH 5.5) was -1.1; in data set [1] (pH 6), -0.242; in data set [1] (pH 6, modulator: ogerin), -0.887; in data set [1] (pH 6.5, modulator: ogerin), -1.43. Also, the surface expression score in data set [2] was -0.548.
For S276G, the cAMP reporter score in data set [1] (pH 5.5) was 0.454; in data set [1] (pH 6) it was -0.324; in data set [1] (pH 6, modulator: ogerin), -0.131; in data set [1] (pH 6.5, modulator: ogerin), -0.771. Besides, the surface expression score in data set [2] is -0.75.
As to S276R, the cAMP reporter score was -1.06 in data set [1] (pH 5.5); -0.913 in data set [1] (pH 6); -0.668 in data set [1] (pH 6, modulator: ogerin); -0.392 in data set [1] (pH 6.5, modulator: ogerin).
On to S276K, for which the cAMP reporter score in data set [1] (pH 5.5) is -1.23; in data set [1] (pH 6), -1.08; in data set [1] (pH 6, modulator: ogerin), -1.61; in data set [1] (pH 6.5, modulator: ogerin), -1.27. Moreover, the surface expression score in data set [2] turned out to be 0.376.
As for S276I, the cAMP reporter score in data set [1] (pH 5.5) was -1.33; in data set [1] (pH 6) it was -2.05; in data set [1] (pH 6.5, modulator: ogerin), -2.28. For the same variant, the surface expression score in data set [2] is -0.658.
Turning to S276P, the cAMP reporter score was -0.834 in data set [1] (pH 5.5); -1.41 in data set [1] (pH 6); -2.13 in data set [1] (pH 6, modulator: ogerin); -0.421 in data set [1] (pH 6.5, modulator: ogerin). For the same variant, the surface expression score in data set [2] is -0.829.
On to S276F, for which the cAMP reporter score is -2.08 in data set [1] (pH 5.5); -0.824 in data set [1] (pH 6); -1.99 in data set [1] (pH 6.5, modulator: ogerin). Moreover, the surface expression score in data set [2] is -2.21.
For S276V, the cAMP reporter score in data set [1] (pH 5.5) was 0.443; in data set [1] (pH 6, modulator: ogerin), -0.235; in data set [1] (pH 6.5, modulator: ogerin) it was -0.221.
For S276H, the cAMP reporter score came to 0.545 in data set [1] (pH 5.5); 2.24 in data set [1] (pH 6); 0.81 in data set [1] (pH 6, modulator: ogerin); 1.87 in data set [1] (pH 6.5, modulator: ogerin).
Turning to S276A, the cAMP reporter score in data set [1] (pH 5.5) is 0.156; in data set [1] (pH 6) it was -0.753; in data set [1] (pH 6, modulator: ogerin), -0.327; in data set [1] (pH 6.5, modulator: ogerin), -0.706. Further, the surface expression score in data set [2] was -0.291.
